± gives the standard deviation. Only a part is listed here, and it is no random draw.

Experimental findings from the supplement of paper PMC10338343 are described below.

The test system of one assay is MIWI (PIWIL1) piRISC loaded with L1MC piRNA (30 nt). Briefly: pre-steady-state target cleavage rate (min^-1); MIWI and MILI are mouse PIWI proteins and EfPiwi is from a freshwater sponge; tags in brackets are library labels; higher = faster piRNA-guided slicing of the target. The settings on record: guide: L1MC piRNA 5'p-UAACUAAAUACUAUGCAAGCUGUAGGUCCU; auxiliary factor: 500 nM mouse GTSF1. Here is the method:
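Cleave-'n-Seq: a library of target RNAs (target site embedded in constant flanks, ACAGCATTCCGCGTTAGTGATATCCG... 5' flank; DNA-blocked outside the site) at 0.1 nM was incubated with 1 nM active mouse MILI or MIWI piRISC (synthetic 5'-monophosphorylated piRNA guide) with or without 500 nM mouse GTSF1 at 33 °C for 1 min to 16 h. Uncleaved targets were sequenced and normalised to non-target controls, and the pooled three trials were fitted to a burst-and-steady-state model to give the pre-steady-state cleavage rate (min^-1; k3 is constrained to at most 1e-4). Sequence is the target site only; target names encode pairing extent (gX:gY) and contiguous / 1-mismatch / 2-mismatch / bulge geometry. Fits with R² ≤ 0 are excluded.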
On to UCCUGGAUGUCGAAGCAUAGUAUUUGAGUUA, for which the “pre-steady-state target cleavage rate” value was 0.0058 ± 0.0038.
As to UGGACCUACAGCGUUGCAUAGUAUUUAGUUA, the “pre-steady-state target cleavage rate” value came to 1.33 ± 0.11.
With UGGACCUACUCCUUGCAUAGUAUUUAGAAA, the “pre-steady-state target cleavage rate” value was 0.189 ± 0.032.
Still for that read-out and setting: the figure for AGGACCUUCAGCUUGCAUAGUAUUUAGUUA is 1.32 ± 0.056.
On the same count and under the same terms, then UCCACCUACAGCUUGGAUAGUAUUUACUUA, with 0.219 ± 0.025; and UCCUGGAUGUGCUUGCAUACUAUUAAGUUA, with 0.0149 ± 0.0067; and UGGACGUACAGCAUGCAUAGUAUUUAGUUA, with 1.11 ± 0.064.
Regarding UCCACCUACAGCUUGCAUAGUAAAUAGUAA, the “pre-steady-state target cleavage rate” value is 0.363 ± 0.063.
With UCGACCUACACCUUGCAUAGUUUUUAGUUA, the “pre-steady-state target cleavage rate” value was 0.285 ± 0.03.
Take AGGACCUACAGCUUGCAUUGUAUUUAGAUA: the “pre-steady-state target cleavage rate” value came out at 0.304 ± 0.035.
Take UCCACCUACAGCUUCGUUAGUAUUUAGUUA: the “pre-steady-state target cleavage rate” value worked out at 0.0745 ± 0.011.
Regarding AGGACCAACAGCUUGCAUAGUAUUUUCAAA, the “pre-steady-state target cleavage rate” value was 0.376 ± 0.047.
Turning to UCCUGGAUCAGCUUGCAUAGUAAUAAGUUA, the “pre-steady-state target cleavage rate” value is 0.0493 ± 0.015.
As for UGGACCUACAGCUUGCAUACAAUUUAGUAA, the “pre-steady-state target cleavage rate” value came to 0.00447 ± 0.0027.
For UCGACGUACAGCAUGCAUAGUAUUUAGUUA, the “pre-steady-state target cleavage rate” value was 1.29 ± 0.044.
For UGGACCUACAGCUUCCAUAGUAUUUAGUAA, the “pre-steady-state target cleavage rate” value was determined as 0.0222 ± 0.0064.
For the sequence UCCUGGUACAGCUUGCCAUAGUAUUUAGUUA, the “pre-steady-state target cleavage rate” value was determined as 0.0951 ± 0.024.
UCCUGGAUGUCGUUGCAUAGUAUUUAUUUA: the “pre-steady-state target cleavage rate” value came to 0.00442 ± 0.0038.
As to UCGACCUACAGCUUGCAUAGAAUUUUGUUA, the “pre-steady-state target cleavage rate” value came out at 0.494 ± 0.052.
UCCUGGAAGAGGUUGCAUAGUAUUUAGUUA: the “pre-steady-state target cleavage rate” value was 0.357 ± 0.03.
On the same count and under the same terms, the figure for UCCUGCUACAGCUUGCAUAGUAAAAAGUAA is 0.0998 ± 0.021; for UCCUGGAUGAGCUAGCAUAGUAUUAAGUUA it is 0.21 ± 0.026.
Consider UGGACCAACAGCUUGCAUAGUAUUAAGUUA, for which the “pre-steady-state target cleavage rate” value came out at 0.765 ± 0.036.
As for UCCUGGAUGUGCUUGCAUAGUAUUUAGUAA, the “pre-steady-state target cleavage rate” value amounted to 0.365 ± 0.031.

Still in this assay, the particulars now being: guide: L1MC piRNA 5'p-UAACUAAAUACUAUGCAAGCUGUAGGUCCU; auxiliary factor: none (no GTSF1).
With UGGACCUACAGCGUUGCAUAGUAUUUAGUUA, the “pre-steady-state target cleavage rate” value amounted to 0.0647 ± 0.013.
As to UGGACCUACUCCUUGCAUAGUAUUUAGAAA, the “pre-steady-state target cleavage rate” value is 0.00602 ± 0.002.
Still for that read-out and setting: then AGGACCUUCAGCUUGCAUAGUAUUUAGUUA, with 0.0842 ± 0.013; and UCCACCUACAGCUUGGAUAGUAUUUACUUA, with 0.0196 ± 0.0034; and UCCUGGAUGUGCUUGCAUACUAUUAAGUUA, with 0.00358 ± 0.0027.
Regarding UGGACGUACAGCAUGCAUAGUAUUUAGUUA, the “pre-steady-state target cleavage rate” value worked out at 0.0375 ± 0.006.
As to UCGACCUACACCUUGCAUAGUUUUUAGUUA, the “pre-steady-state target cleavage rate” value was found to be 0.0191 ± 0.0038.
On to AGGACCUACAGCUUGCAUUGUAUUUAGAUA, for which the “pre-steady-state target cleavage rate” value turned out to be 0.0154 ± 0.0038.
AGGACCAACAGCUUGCAUAGUAUUUUCAAA: the “pre-steady-state target cleavage rate” value was determined as 0.00778 ± 0.0043.
Still for that read-out and setting: the figure for UCGACGUACAGCAUGCAUAGUAUUUAGUUA is 0.0368 ± 0.0078.
On to UGGACCUACAGCUUCCAUAGUAUUUAGUAA, for which the “pre-steady-state target cleavage rate” value stood at 0.00204 ± 0.002.
As to UCGACCUACAGCUUGCAUAGAAUUUUGUUA, the “pre-steady-state target cleavage rate” value was 0.0108 ± 0.0028.
Take UCCUGGAAGAGGUUGCAUAGUAUUUAGUUA: the “pre-steady-state target cleavage rate” value came to 0.00453 ± 0.0025.
For the sequence UCCUGGAUGAGCUAGCAUAGUAUUAAGUUA, the “pre-steady-state target cleavage rate” value is 0.00343 ± 0.0028.
UGGACCAACAGCUUGCAUAGUAUUAAGUUA: the “pre-steady-state target cleavage rate” value stood at 0.0362 ± 0.0086.
Consider UCCUGGAUGUGCUUGCAUAGUAUUUAGUAA, for which the “pre-steady-state target cleavage rate” value was 0.0468 ± 0.011.
